In the supplement of paper PMC11876631:
Positions count from the first letter of the chain named. Names and notes keep the numbering of the source. ± gives the standard deviation of the averaged measurements. Laboratory Escherichia coli strains with one amino-acid change in an essential protein, pooled on minimal glucose agar with carbenicillin or gentamicin at twice the control MIC (plus kanamycin and chloramphenicol for the plasmids), 48 h. Fold change of barcode share against drug-free plates; higher = less susceptible. Active = above 20 in both replicates (the paper's putatively resistant). '<' = one read or none on drug, '>' = one read or none on a drug-free plate. Shares are relative, so most strains fall below 1 when a few take over. Listed are strains with at least 15 reads on both drug-free plates, and hits; most hits rest on fewer reference reads. Replicate rank correlation about 0.5. Edits are read from barcodes.

B1: lptG I15A (protein)
chain: MQPFGVLDRYIGKTAFTTIMMTLFMLVSLSGIIKFVDQLKKAGQGSYDALGAGMYTLLSVPKDVQIFFPMAALLGALLGLGMLAQRSELVVMQASGFTRMQVALSVMKTAIPLVLLTMAIGEWVAPQGEQMARNYRAQAMYGGSLLSTQQGLWAKDGNNFVYIERVKGDEELGGISIYAFNENRRLQSVRYAATAKFDPEHKVWRLSQVDESDLTNPKQITGSQTVSGTWKTNLTPDKLGVVALDPDALSISGLHNYVKYLKSSGQDAGRYQLNMWSKIFQPLSVAVMMLMALSFIFGPLRSVPMGVRVVTGISFGFVFYVLDQIFGPLTLVYGIPPIIGALLPSASFFLISLWLLMRKS
B2: lptG I175P (protein)
chain: B1 chain with A15I, I175P
B3: lpxC L66A (protein)
chain: MIKQRTLKRIVQATGVGLHTGKKVTLTLRPAPANTGVIYRRTDLNPPVDFPADAKSVRDTMLCTCAVNEHDVRISTVEHLNAALAGLGIDNIVIEVNAPEIPIMDGSAAPFVYLLLDAGIDELNCAKKFVRIKETVRVEDGDKWAEFKPYNGFSLDFTIDFNHPAIDSSNQRYAMNFSADAFMRQISRARTFGFMRDIEYLQSRGLCLGGSFDCAIVVDDYRVLNEDGLRFEDEFVRHKMLDAIGDLFMCGHNIIGAFTAYKSGHALNNKLLQAVLAKQEAWEYVTFQDDAELPLAFKAPSAVLA
B4: lpxC L115Q (protein)
chain: B3 chain with A66L, L115Q
B5: lpxD V201P (protein)
chain: MPSIRLADLAQQLDAELHGDGDIVITGVASMQSAQTGHITFMVNPKYREHLGLCQASAVVMTQDDLPFAKSAALVVKNPYLTYARMAQILDTTPQPAQNIAPSAVIDATAKLGNNVSIGANAVIESGVELGDNVIIGAGCFVGKNSKIGAGSRLWANVTIYHEIQIGQNCLIQSGTVVGADGFGYANDRGNWVKIPQIGRPIIGDRVEIGACTTIDRGALDDTIIGNGVIIDNQCQIAHNVVIGDNTAVAGGVIMAGSLKIGRYCMIGGASVINGHMEICDKVTVTGMGMVMRPITEPGVYSSGIPLQPNKVWRKTAALVMNIDDMSKRLKSLERKVNQQD
B6: aroD L158Q (protein)
chain: MKTVTVKDLVIGTGAPKIIVSLMAKDIASVKSEALAYREADFDILEWRVDHYADLSNVESVMAAAKILRETMPEKPLLFTFRSAKEGGEQAISTEAYIALNRAAIDSGLVDMIDLELFTGDDQVKETVAYAHAHDVKVVMSNHDFHKTPEAEEIIARQRKMQSFDADIPKIALMPQSTSDVLTLLAATLEMQEQYADRPIITMSMAKTGVISRLAGEVFGSAATFGAVKKASAPGQISVNDLRTVLTILHQA
B7: aroD I168Q (protein)
chain: B6 chain with Q158L, I168Q
B8: aroD L45P (protein)
chain: B6 chain with L45P, Q158L
B9: aroD M203A (protein)
chain: B6 chain with Q158L, M203A
B10: metB L151A (protein)
chain: MTRKQATIAVRSGLNDDEQYGCVVPPIHLSSTYNFTGFNEPRAHDYSRRGNPTRDVVQRALAELEGGAGAVLTNTGMSAIHLVTTVFLKPGDLLVAPHDCYGGSYRLFDSLAKRGCYRVLFVDQGDEQALRAALAEKPKLVLVESPSNPLARVVDIAKICHLAREVGAVSVVDNTFLSPALQNPLALGADLVLHSCTKYLNGHSDVVAGVVIAKDPDVVTELAWWANNIGVTGGAFDSYLLLRGLRTLVPRMELAQRNAQAIVKYLQTQPLVKKLYHPSLPENQGHEIAARQQKGFGAMLSFELDGDEQTLRRFLGGLSLFTLAESLGGVESLISHAATMTHAGMAPEARAAAGISETLLRISTGIEDGEDLIADLENGFRAANKG
B11: metB L151Q (protein)
chain: B10 chain with A151Q
B12: metK L186W (protein)
chain: MAKHLFTSESVSEGHPDKIADQISDAVLDAILEQDPKARVACETYVKTGMVLVGGEITTSAWVDIEEITRNTVREIGYVHSDMGFDANSCAVLSAIGKQSPDINQGVDRADPLEQGAGDQGLMFGYATNETDVLMPAPITYAHRLVQRQAEVRKNGTLPWLRPDAKSQVTFQYDDGKIVGIDAVVWSTQHSEEIDQKSLQEAVMEEIIKPILPAEWLTSATKFFINPTGRFVIGGPMGDCGLTGRKIIVDTYGGMARHGGGAFSGKDPSKVDRSAAYAARYVAKNIVAAGLADRCEIQVSYAIGVAEPTSIMVETFGTEKVPSEQLTLLVREFFDLRPYGLIQMLDLLHPIYKETAAYGHFGREHFPWEKTDKAQLLRDAAGLK
B13: metL F532A (protein)
chain: MSVIAQAGAKGRQLHKFGGSSLADVKCYLRVAGIMAEYSQPDDMMVVSAAGSTTNQLINWLKLSQTDRLSAHQVQQTLRRYQCDLISGLLPAEEADSLISAFVSDLERLAALLDSGINDAVYAEVVGHGEVWSARLMSAVLNQQGLPAAWLDAREFLRAERAAQPQVDEGLSYPLLQQLLVQHPGKRLVVTGFISRNNAGETVLLGRNGSDYSATQIGALAGVSRVTIWSDVAGVYSADPRKVKDACLLPLLRLDEASELARLAAPVLHARTLQPVSGSEIDLQLRCSYTPDQGSTRIERVLASGTGARIVTSHDDVCLIEFQVPASQDFKLAHKEIDQILKRAQVRPLAVGVHNDRQLLQFCYTSEVADSALKILDEAGLPGELRLRQGLALVAMVGAGVTRNPLHCHRFWQQLKGQPVEFTWQSDDGISLVAVLRTGPTESLIQGLHQSVFRAEKRIGLVLFGKGNIGSRWLELFAREQSTLSARTGFEFVLAGVVDSRRSLLSYDGLDASRALAFFNDEAVEQDEESLALWMRAHPYDDLVVLDVTASQQLADQYLDFASHGFHVISANKLAGASDSNKYRQIHDAFEKTGRHWLYNATVGAGLPINHTVRDLIDSGDTILSISGIFSGTLSWLFLQFDGSVPFTELVDQAWQQGLTEPDPRDDLSGKDVMRKLVILAREAGYNIEPDQVRVESLVPAHCEGGSIDHFFENGDELNEQMVQRLEAAREMGLVLRYVARFDANGKARVGVEAVREDHPLASLLPCDNVFAIESRWYRDNPLVIRGPGAGRDVTAGAIQSDINRLAQLL
B14: metL F532P (protein)
chain: B13 chain with A532P

Target: Escherichia coli (laboratory strain)
Assay: barcode share on antibiotic plates over drug-free plates; higher = less susceptible
Conditions: antibiotic: gentamicin; 2× MIC (MIC 0.45 µg/mL)
Protocol: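 A pool of E. coli strains, each edited to carry one amino-acid change in an essential protein, was grown for 48 h on minimal glucose agar with or without antibiotic; strain barcodes were sequenced; mean of two replicates.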

Row | Protein | fold change of barcode share
1 | B1 | < 0.0158
2 | B2 | < 0.0105
3 | B3 | < 0.0164
4 | B4 | < 0.0163
5 | B5 | 0.0288 ± 0.029
6 | B6 | < 0.0226
7 | B7 | < 0.0206
8 | B8 | < 0.019
9 | B9 | < 0.0162
10 | B10 | < 0.00919
11 | B11 | < 0.00285
12 | B12 | 0.0131 ± 0.0084
13 | B13 | < 0.0196
14 | B14 | < 0.0143
